Hit rate of the full screen: of about 48,000 compounds, about 550 (1.1%) were called active. Inconclusive results (about 4%) are left out. No stated cut-off is given here; in the data, active means potency below about 15 µM; inconclusive means mostly about 16 µM to 33 µM; inactive means weaker than that. Some of the results follow.
Molecular target: Lysosomal acid glucosylceramidase (Homo sapiens) (UniProt P04062)
Test: Glucocerebrosidase;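 further: the screen sought inhibitors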
Conditions: purified enzyme, resorufin glucoside fluorescence (screen aimed at inhibitors), 20 min
Procedure, shortened: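 Wild-type enzyme at 0.2 nM final in 50mM citric acid/KH2PO4, 10mM sodium taurocholate, 0.01% tween-20, pH 5.9, with resorufin beta-D-glucopyranoside at 30 uM final. Compounds titrated, 20 min at RT, red fluorescence read; AC50 from titration.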
Potency means the concentration at half of the fitted maximal effect.

Sequence of UniProt P04062 (P04062 whole entry, looked up): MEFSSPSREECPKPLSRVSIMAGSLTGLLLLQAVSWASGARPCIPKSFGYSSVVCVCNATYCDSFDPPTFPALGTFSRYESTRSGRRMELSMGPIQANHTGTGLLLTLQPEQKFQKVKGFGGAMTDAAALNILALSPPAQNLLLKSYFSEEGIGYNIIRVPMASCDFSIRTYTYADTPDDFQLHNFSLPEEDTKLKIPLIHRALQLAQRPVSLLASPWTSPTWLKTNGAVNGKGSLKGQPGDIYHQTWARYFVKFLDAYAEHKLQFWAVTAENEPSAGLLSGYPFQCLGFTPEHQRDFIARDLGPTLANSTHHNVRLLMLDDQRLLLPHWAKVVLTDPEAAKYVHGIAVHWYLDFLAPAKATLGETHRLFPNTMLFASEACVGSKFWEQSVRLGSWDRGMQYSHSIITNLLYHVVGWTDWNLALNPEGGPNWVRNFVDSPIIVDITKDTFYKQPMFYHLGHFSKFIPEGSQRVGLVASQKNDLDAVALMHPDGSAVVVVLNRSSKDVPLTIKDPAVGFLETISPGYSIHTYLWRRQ

Potency, inactive:
COc1ccc(OC)c(NC(=O)CCCN2C(=O)C3C4C=CC(C4)C3C2=O)c1 (stereo not given) > 76.9 µM
CN(CCC#N)C(=O)COC(=O)c1ccc(Cl)c(S(N)(=O)=O)c1 > 76.9 µM
COc1cc(C(O)P(=O)(OC2CCCCC2)c2ccc(N(C)C)cc2)cc(OC)c1OC (stereo not given) > 76.9 µM
CCn1nc(C)c(/C=C2\CCCC3=C2OC(N)=C(C#N)C3c2c(C)nn(CC)c2C)c1C (stereo not given) > 76.9 µM
N#CC1=C(N)Oc2cc3c(cc2C1c1ccc(Cl)cc1)OCO3 (stereo not given) > 76.9 µM
CC1CCCCC1NC(=O)c1ccc(N2CCCC2=O)cc1 (stereo not given) > 76.9 µM
Cn1c(C(=O)NC2CCCCC2)cc2sccc21 > 76.9 µM
CN1C(=O)C(CC(=O)N2CCN(C(c3ccccc3)c3ccccc3)CC2)N(C)C1=O (stereo not given) > 76.9 µM
Cc1cc(C)n(-c2nc3c(c(=O)[nH]c(=O)n3C)n2CCc2ccccc2)n1 > 76.9 µM
CCCC(=O)Nc1nn(C)c2nc3cc(C)ccc3cc12 > 76.9 µM
COc1cccc(C2NC(=O)NC(C)=C2C(=O)Nc2cccc(C)c2C)c1 (stereo not given) > 76.9 µM
CN(C)c1ccc(C(=O)c2ccc(N(C)C)c(N)c2)cc1N > 76.9 µM
CCOC(=O)Cc1cc(=O)n2[nH]c(C)c(-c3ccc(OC)cc3)c2n1 > 76.9 µM
Cc1cccc(OCc2nc(-c3nonc3N)no2)c1C > 76.9 µM
O=C(Cc1ccccc1)Nc1ccc(N2CCOCC2)cc1N1CCOCC1 > 76.9 µM
CC(C)(C)NC(=O)Cn1nnc(-c2cccs2)n1 > 76.9 µM
Cc1cc(C)n(C(=O)c2cccc(S(=O)(=O)N3CCCC3)c2)n1 > 76.9 µM
c1ccc2nc(N3CCCC3)c(N3CCCC3)nc2c1 > 76.9 µM
Oc1ccc(-c2nnc(-c3ccc(O)cc3)nn2)cc1 > 76.9 µM
Cc1cc(NC(=O)CSc2nc(-c3ccccc3)cs2)no1 > 76.9 µM
CSc1nc(-c2ccco2)nn1C(=O)Cc1ccccc1 > 76.9 µM
Cc1c(-c2nn(C)c(=O)c3ccccc23)oc2ccc(F)cc2c1=O > 76.9 µM
COc1ccc(-c2c3c(=O)n(C)c(=O)n(C)c3c3nnc4ccccc4n23)cc1 > 76.9 µM
CC(C)Oc1ccccc1-c1nc(SCC(=O)O)n[nH]1 > 76.9 µM
O=C(NC1CCCCC1)NC1(C(=O)N2CCN3CCCC3C2)CCCCC1 (stereo not given) > 76.9 µM

Source: PubChem BioAssay AID360 (National Center for Advancing Translational Sciences (NCATS), 2006)
